Results on 56 compounds are retold here after article PMC4336329 (PLoS ONE, 2015).

SMILES strings stand for the structures. About 14,000 (4.5%) of roughly 310,000 compounds showed an effect of 50% or more. Effects have a minus sign here. This is one part of the list.
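Note: peak tail current of the secondary pulse compared with the same well before compound.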

In the experiment the target is human ether-à-go-go-related gene (hERG) potassium channel (human, UniProt Q12809). Kind of experiment: primary screen, population patch clamp on CHO cells stably expressing hERG.
Chain of human ether-à-go-go-related gene (hERG) potassium channel (Q12809 whole entry, looked up): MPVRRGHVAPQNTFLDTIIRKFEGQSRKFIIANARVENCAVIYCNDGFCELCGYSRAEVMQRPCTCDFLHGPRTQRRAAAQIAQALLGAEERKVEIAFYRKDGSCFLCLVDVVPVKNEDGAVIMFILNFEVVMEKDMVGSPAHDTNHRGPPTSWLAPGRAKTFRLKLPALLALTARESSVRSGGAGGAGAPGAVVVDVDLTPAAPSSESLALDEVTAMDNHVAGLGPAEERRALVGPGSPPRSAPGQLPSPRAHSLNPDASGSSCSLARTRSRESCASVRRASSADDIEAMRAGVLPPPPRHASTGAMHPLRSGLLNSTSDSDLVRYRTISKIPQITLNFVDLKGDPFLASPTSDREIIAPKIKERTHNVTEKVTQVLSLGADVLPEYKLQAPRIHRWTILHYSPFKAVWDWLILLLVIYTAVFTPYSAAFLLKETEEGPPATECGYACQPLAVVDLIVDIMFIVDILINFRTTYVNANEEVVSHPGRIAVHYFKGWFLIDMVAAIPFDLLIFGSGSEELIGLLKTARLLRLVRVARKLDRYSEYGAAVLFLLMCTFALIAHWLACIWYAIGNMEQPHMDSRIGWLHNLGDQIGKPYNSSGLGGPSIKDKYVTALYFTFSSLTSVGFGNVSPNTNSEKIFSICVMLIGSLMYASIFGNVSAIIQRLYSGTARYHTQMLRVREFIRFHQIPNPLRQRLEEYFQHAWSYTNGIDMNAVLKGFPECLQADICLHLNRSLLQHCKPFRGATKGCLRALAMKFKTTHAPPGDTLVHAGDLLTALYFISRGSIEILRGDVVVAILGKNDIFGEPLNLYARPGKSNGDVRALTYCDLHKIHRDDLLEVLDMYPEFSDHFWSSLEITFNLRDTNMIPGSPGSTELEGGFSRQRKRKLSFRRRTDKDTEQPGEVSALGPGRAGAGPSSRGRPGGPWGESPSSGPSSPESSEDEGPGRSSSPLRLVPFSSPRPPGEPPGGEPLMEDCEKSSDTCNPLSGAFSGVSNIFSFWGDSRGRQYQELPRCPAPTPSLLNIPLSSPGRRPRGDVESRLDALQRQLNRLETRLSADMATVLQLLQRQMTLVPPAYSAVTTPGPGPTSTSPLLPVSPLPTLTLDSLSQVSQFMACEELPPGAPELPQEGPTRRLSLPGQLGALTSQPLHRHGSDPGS
On to `COc1ccc(C(=O)COC(=O)CN2C(=O)c3ccccc3C2=O)c(OC)c1`, for which the “hERG current change (%, negative = inhibition) at 10uM” value is recorded as 5.3%.
As for `CCc1ccccc1N1C(=O)C2C3C=CC(CC3)C2C1=O` (centres unmarked), the “hERG current change (%, negative = inhibition) at 10uM” value is 15.5%.
Consider `O=C(CCNS(=O)(=O)c1cccc2nonc12)NCc1cccs1`, for which the “hERG current change (%, negative = inhibition) at 10uM” value is recorded as -6.21%.
Under `COc1cc(/C=N/NC(=O)c2ccncc2)ccc1OC(=O)c1cccc(Br)c1` stands -26%; under `Cc1ccc(S(=O)(=O)NNC(=O)c2csnn2)cc1`, 1.7%; under `CC1=C(C)CC(C(=O)NC2CCN(C(C)C)CC2)C(C(=O)O)C1` (centres unmarked), 15.3%.
Regarding `CCOc1ccc(N2Nc3n[nH]c(N)c3N2)cc1`, the “hERG current change (%, negative = inhibition) at 10uM” value stood at 12.9%.
For `Cc1c(Cl)c([N+](=O)[O-])nn1CC(=O)NCC(C)C`, the “hERG current change (%, negative = inhibition) at 10uM” value is recorded as 8.29%.
For the compound `CCSc1nc2sc3c(c2c(=O)n1-c1ccc(OC)cc1)CCN(C)C3`, the “hERG current change (%, negative = inhibition) at 10uM” value came out at 5.2%.
In the case of `O=C(NC12CC3CC(CC(C3)C1)C2)c1ccc(-c2cccc(Cl)c2)o1`, the “hERG current change (%, negative = inhibition) at 10uM” value is recorded as 23.1%.
As to `COc1ccc(CN(C)C(=O)c2ccc(NS(=O)(=O)c3ccccc3)cc2)c(OC)c1`, the “hERG current change (%, negative = inhibition) at 10uM” value is recorded as -7.77%.
Consider `Cc1ccc(N(C(=O)Cn2nnc3ccccc32)C(C(=O)NC2CCCCC2)c2cn(C)nc2C)cc1` (centres unmarked), for which the “hERG current change (%, negative = inhibition) at 10uM” value was -0.391%.
With `COc1ccc(-c2ccc(OC)cc2)cc1`, the “hERG current change (%, negative = inhibition) at 10uM” value is recorded as 7.51%.
As for `CCCCN1C(=O)C(C2c3ccccc3C(=O)N2Cc2ccccc2)C(=O)NC1=S` (centres unmarked), the “hERG current change (%, negative = inhibition) at 10uM” value is on record as -9.08%.
Take `O=C(Cc1cccs1)NCCc1ccc(F)cc1`: the “hERG current change (%, negative = inhibition) at 10uM” value came out at 17.7%.
Consider `CCCCCCNC(=O)CC(c1ccccc1)c1cc(Br)ccc1O` (centres unmarked), for which the “hERG current change (%, negative = inhibition) at 10uM” value is listed as -3.26%.
Take `Cc1ccc(C(=O)NC(=S)NNC(=O)c2ccccc2)cc1`: the “hERG current change (%, negative = inhibition) at 10uM” value is listed as 31.1%.
Turning to `CC(C)OCCCNC(=O)c1ccc2c(c1)NC(=O)c1ccccc1S2`, the “hERG current change (%, negative = inhibition) at 10uM” value worked out at 8.12%.
As for `COc1ccccc1N1CCN(C2CCN(C3CCC(c4ccccc4)CC3)CC2)CC1.O=C(O)C(=O)O` (centres unmarked), the “hERG current change (%, negative = inhibition) at 10uM” value is -74.1%.
`CC(C)OC(=O)c1cccc(C(=O)OCc2ccco2)n1`: the “hERG current change (%, negative = inhibition) at 10uM” value was 10.9%.
`COCCn1c(SCC(=O)Nc2ccccc2OC)nc2ccccc2c1=O`: the “hERG current change (%, negative = inhibition) at 10uM” value is recorded as -40.1%.
As for `Cc1cccc(NC(=O)CCCc2ccccc2)c1`, the “hERG current change (%, negative = inhibition) at 10uM” value was 3.57%.
For `CC(C)S(=O)(=O)N1CCN(c2ccnc3cc(Cl)ccc23)CC1`, the “hERG current change (%, negative = inhibition) at 10uM” value is given as -71.6%.
With `Cc1ccc(-c2cc(Cc3ccc(N(C)C)cc3)c(=O)[nH]n2)cc1`, the “hERG current change (%, negative = inhibition) at 10uM” value came out at 14.5%.
Regarding `Cc1ccc(S(=O)(=O)N(C)CC(=O)Nc2ccccc2N2CCCC2)cc1`, the “hERG current change (%, negative = inhibition) at 10uM” value was -7.31%.
As to `COc1ccccc1OCc1ccc(C(=O)OCC2CCCO2)o1` (centres unmarked), the “hERG current change (%, negative = inhibition) at 10uM” value is reported as -2.54%.
Under `COc1ccc(/C=N/N=C2/CC(C)(C)Cc3n[nH]c(=O)cc32)cc1` stands 8.64%; under `COCCNC(=O)c1cnn2c(C(F)F)cc(-c3ccccc3)nc12`, 25.2%.
Turning to `CC(C)(CN1CCN(Cc2ccccc2)CC1)NS(=O)(=O)c1ccc(Cl)cc1`, the “hERG current change (%, negative = inhibition) at 10uM” value is on record as -74.7%.
For the compound `COc1ccccc1N1CCN(CCOc2c(OC)cccc2OC)CC1.Cl`, the “hERG current change (%, negative = inhibition) at 10uM” value was -34.6%.
As for `O=C(CCCn1c(=O)[nH]c2ccsc2c1=O)N1CCN(Cc2ccc3c(c2)OCO3)CC1`, the “hERG current change (%, negative = inhibition) at 10uM” value is recorded as -18.8%.
Under `CC1CC(C)CN(S(=O)(=O)c2ccc3c(c2)CC(=O)N3)C1` (centres unmarked) stands -20.8%; under `Cc1[nH]c2ccccc2c1Cc1n[nH]c(=S)n1C`, 21.1%; under `COc1cc(NC(=O)CN2C(=O)NC(c3ccccc3)(c3ccccc3)C2=O)c(C)cc1[N+](=O)[O-]`, -22.7%.
On to `O=C(N/N=C/c1cccc(O)c1)c1ccc(COc2ccc3c(c2)CCC3)o1`, for which the “hERG current change (%, negative = inhibition) at 10uM” value was determined as 6.88%.
Take `COc1cc(C(=O)Nc2ccc3nc(N4CCOCC4)sc3c2)cc(OC)c1OC`: the “hERG current change (%, negative = inhibition) at 10uM” value is -1.67%.
In the case of `CCCC(=O)Nc1ccc2oc(-c3cncc(Br)c3)nc2c1`, the “hERG current change (%, negative = inhibition) at 10uM” value was 7.03%.
In the case of `COC(=O)N1C(=O)[C@](c2ccc(OC)cc2)(C(C)C)N1C(=O)OC` it was 8.8%; in that of `Cc1ccc(C(=O)N/C(=C\c2cccs2)C(=O)NCCc2c[nH]c3ccccc23)cc1C`, -21.2%; in that of `COc1ccc(C(=O)NCc2csc(C(C)C)n2)cc1OC1CCN(C(C)=O)CC1`, 3.77%.
`CN(C)S(=O)(=O)c1cccc(NC(=O)COC(=O)CCC(=O)c2cccs2)c1`: the “hERG current change (%, negative = inhibition) at 10uM” value amounted to 1.41%.
As to `O=C(CNCC1CCCO1)N1CCCCCC1.O=C(O)C(=O)O` (centres unmarked), the “hERG current change (%, negative = inhibition) at 10uM” value was 12.4%.
Take `Cc1nn(-c2ccccc2)c2c1C1(C(=O)N(C)c3ccccc31)N(c1ccccc1)C(=O)N2` (centres unmarked): the “hERG current change (%, negative = inhibition) at 10uM” value is on record as -8.05%.
For `CCOC(=O)CNC(=O)CSc1nnc(NC(=O)c2ccc(S(=O)(=O)N3CCOCC3)cc2)s1`, the “hERG current change (%, negative = inhibition) at 10uM” value was 16.8%.
Consider `Cc1nn(Cc2ccc([N+](=O)[O-])cc2)c(=O)n1-c1cccc(Cl)c1`, for which the “hERG current change (%, negative = inhibition) at 10uM” value is reported as -15.6%.
Turning to `CC(C)(C)c1ccc(S(=O)(=O)NCC(=O)N2CCN(Cc3ccccc3)CC2)cc1`, the “hERG current change (%, negative = inhibition) at 10uM” value is -2.46%.
With `CCOC(=O)N1CCN(C(=O)CCn2c(=O)[nH]c3ccsc3c2=O)CC1`, the “hERG current change (%, negative = inhibition) at 10uM” value stood at 12.7%.
Consider `Nc1nc(-c2ccccc2)cc(C(F)(F)F)n1`, for which the “hERG current change (%, negative = inhibition) at 10uM” value stood at 4.51%.
As to `COc1ccc(CN2CCC(C(=O)Nc3ccc(Oc4cccnc4)cc3)CC2)c(C)c1C`, the “hERG current change (%, negative = inhibition) at 10uM” value was -36.8%.
On to `CN1CCN(S(=O)(=O)c2cc(Cl)c(Cl)cc2Cl)CC1`, for which the “hERG current change (%, negative = inhibition) at 10uM” value was 0.0247%.
For the compound `COc1cc(C)c(C(=O)Oc2cc(C)c(C(=O)O)c(O)c2)c(O)c1`, the “hERG current change (%, negative = inhibition) at 10uM” value is recorded as 11.5%.
As for `O=C(CN1CCN(c2ccccn2)CC1)NCc1cccs1`, the “hERG current change (%, negative = inhibition) at 10uM” value was -26.2%.
Regarding `O=C(NCC1(c2ccccc2)CCOCC1)c1cccs1`, the “hERG current change (%, negative = inhibition) at 10uM” value came to 13.9%.
Turning to `CC(=O)c1ccc(-c2ccc(/C=C(/Sc3n[nH]c(C)n3)C(=O)O)o2)cc1`, the “hERG current change (%, negative = inhibition) at 10uM” value is -42.7%.
`O=C(NCc1ccco1)c1ccc(Cn2c(=O)c3ccccc3n(Cc3cccc(Cl)c3)c2=O)cc1`: the “hERG current change (%, negative = inhibition) at 10uM” value is given as -5.37%.
For the compound `Cc1ccc(N2C(=O)c3ccccc3C2=O)cc1C`, the “hERG current change (%, negative = inhibition) at 10uM” value is 12.7%.
